# Data: the supplement of paper PMC9927326
# MIC of clinical C. albicans isolates, CLSI broth microdilution (ranges and time not stated); higher = less susceptible. Call: susceptible or wild type [S] / resistant or non-wild type [R] by CLSI breakpoints or epidemiological cut-offs; intermediate and dose-dependent carry no call here (the paper groups them with resistant). '<=' and '>=' mark each drug's lowest and highest value, inferred; the source prints them plain. Isolates are numbered anew.
# Assays:
# Assay in all cases: CLSI broth microdilution.
# caspofungin = compound: CC[C@H](C)C[C@H](C)CCCCCCCCC(=O)N[C@H]1C[C@@H](O)[C@@H](NCCN)NC(=O)[C@@H]2[C@@H](O)CCN2C(=O)[C@H]([C@H](O)CCN)NC(=O)[C@H]([C@H](O)[C@@H](O)c2ccc(O)cc2)NC(=O)[C@@H]2C[C@@H](O)CN2C(=O)[C@H]([C@@H](C)O)NC1=O [caspofungin]
# voriconazole = compound: C[C@@H](c1ncncc1F)[C@](O)(Cn1cncn1)c1ccc(F)cc1F [voriconazole]
# anidulafungin = compound: CCCCCOc1ccc(-c2ccc(-c3ccc(C(=O)N[C@H]4C[C@@H](O)[C@@H](O)NC(=O)[C@@H]5[C@@H](O)[C@@H](C)CN5C(=O)[C@H]([C@@H](C)O)NC(=O)[C@H]([C@H](O)[C@@H](O)c5ccc(O)cc5)NC(=O)[C@@H]5C[C@@H](O)CN5C(=O)[C@H]([C@@H](C)O)NC4=O)cc3)cc2)cc1 [anidulafungin]
# fluconazole = compound: OC(Cn1cncn1)(Cn1cncn1)c1ccc(F)cc1F [fluconazole]
# amphotericin B = compound: C[C@@H]1[C@H](O)[C@@H](C)/C=C/C=C/C=C/C=C/C=C/C=C/C=C/[C@H](O[C@@H]2O[C@H](C)[C@@H](O)[C@H](N)[C@@H]2O)C[C@@H]2O[C@](O)(C[C@@H](O)C[C@@H](O)[C@H](O)CC[C@@H](O)C[C@@H](O)CC(=O)O[C@H]1C)C[C@H](O)[C@H]2C(=O)O [amphotericin B]
# posaconazole = compound: CC[C@@H]([C@H](C)O)n1ncn(-c2ccc(N3CCN(c4ccc(OC[C@@H]5CO[C@@](Cn6cncn6)(c6ccc(F)cc6F)C5)cc4)CC3)cc2)c1=O [posaconazole]
# micafungin = compound: CCCCCOc1ccc(-c2cc(-c3ccc(C(=O)N[C@H]4C[C@@H](O)[C@@H](O)NC(=O)[C@@H]5[C@@H](O)[C@@H](C)CN5C(=O)[C@H]([C@H](O)CC(N)=O)NC(=O)[C@H]([C@H](O)[C@@H](O)c5ccc(O)c(OS(=O)(=O)O)c5)NC(=O)[C@@H]5C[C@@H](O)CN5C(=O)[C@H]([C@@H](C)O)NC4=O)cc3)no2)cc1 [micafungin]
# itraconazole = compound: CCC(C)n1ncn(-c2ccc(N3CCN(c4ccc(OCC5COC(Cn6cncn6)(c6ccc(Cl)cc6Cl)O5)cc4)CC3)cc2)c1=O [itraconazole]
# flucytosine = compound: Nc1[nH]c(=O)ncc1F [flucytosine]
Test System,MIC (caspofungin),MIC (voriconazole),MIC (anidulafungin),MIC (fluconazole),MIC (amphotericin B),MIC (posaconazole),MIC (micafungin),MIC (itraconazole),MIC (flucytosine)
"Candida albicans isolate 235 (Erg11p: E266D, Fur1p: WT, Tac1p: T885K,I558V,A430V,A377V,F189S,N174D,M170I,M170V,K87N)",0.06 mg/L [S],≤ 0.008 mg/L [S],0.06 mg/L [S],0.25 mg/L [S],0.5 mg/L [S],0.03 mg/L [S],≤ 0.008 mg/L [S],0.06 mg/L [S],≤ 0.06 mg/L [S]
"Candida albicans isolate 27 (Erg11p: WT, Fur1p: WT, Tac1p: N896S)",0.03 mg/L [S],≤ 0.008 mg/L [S],0.03 mg/L [S],0.5 mg/L [S],0.25 mg/L [S],0.015 mg/L [S],≤ 0.008 mg/L [S],0.03 mg/L [S],≤ 0.06 mg/L [S]
"Candida albicans isolate 258 (Erg11p: D153E, Fur1p: WT, Tac1p: N896S)",0.06 mg/L [S],≤ 0.008 mg/L [S],0.12 mg/L [S],0.5 mg/L [S],0.5 mg/L [S],0.015 mg/L [S],0.015 mg/L [S],0.03 mg/L [S],≤ 0.06 mg/L [S]
"Candida albicans isolate 85 (Erg11p: WT, Fur1p: WT, Tac1p: N896S)",0.12 mg/L [S],0.03 mg/L [S],0.12 mg/L [S],2 mg/L [S],0.5 mg/L [S],0.12 mg/L [R],0.12 mg/L [S],0.25 mg/L [R],0.12 mg/L [S]
"Candida albicans isolate 186 (Erg11p: E266D, Fur1p: WT, Tac1p: C908Y,A377V,N174D,M170I,I109N,K87N)",0.03 mg/L [S],≤ 0.008 mg/L [S],0.03 mg/L [S],0.5 mg/L [S],0.5 mg/L [S],0.03 mg/L [S],≤ 0.008 mg/L [S],0.03 mg/L [S],≤ 0.06 mg/L [S]
"Candida albicans isolate 144 (Erg11p: V488I,S441F,V437I, Fur1p: WT, Tac1p: WT)",0.06 mg/L [S],≤ 0.008 mg/L [S],≤ 0.015 mg/L [S],0.25 mg/L [S],0.5 mg/L [S],0.03 mg/L [S],0.015 mg/L [S],0.06 mg/L [S],0.25 mg/L [S]
"Candida albicans isolate 268 (Erg11p: K342R, Fur1p: WT, Tac1p: I558V,A377V,F189S,N174D,M170I,K87N)",0.06 mg/L [S],≤ 0.008 mg/L [S],0.12 mg/L [S],0.25 mg/L [S],0.25 mg/L [S],0.015 mg/L [S],0.015 mg/L [S],0.06 mg/L [S],≤ 0.06 mg/L [S]
"Candida albicans isolate 148 (Erg11p: Y132H,T123I, Fur1p: R101C, Tac1p: E461K)",0.015 mg/L [S],1 mg/L [R],≤ 0.015 mg/L [S],32 mg/L [R],0.25 mg/L [S],0.12 mg/L [R],0.015 mg/L [S],0.25 mg/L [R],0.12 mg/L [S]
"Candida albicans isolate 314 (Erg11p: WT, Fur1p: WT, Tac1p: N896S,I895T)",0.06 mg/L [S],≤ 0.008 mg/L [S],≤ 0.015 mg/L [S],0.5 mg/L [S],0.5 mg/L [S],0.03 mg/L [S],0.015 mg/L [S],0.06 mg/L [S],0.12 mg/L [S]
